Measurements as given in PubChem BioAssay AID624418 (National Center for Advancing Translational Sciences (NCATS), 2012).
Screen size: about 410,000 compounds; about 530 (0.13%) were called active. This list was built around the results that the source calls inconclusive (neither active nor inactive); the mix of calls is not that of the screen. Calls come from the whole dose curve; as a rule, active = well fitted inhibition curve with a large enough effect; inconclusive = small, poorly fitted or top-dose-only effect, or another doubt; inactive = no such curve, though single readings can be large or run the other way. Potencies of inconclusive entries are doubtful fits and often do not repeat.

assay: qHTS of GLP-1 Receptor Inverse Agonists: Cytotox Screen; details: HEK293 cAMP-luciferase reporter cells, luminescence, 24 h; series mostly up to 38.3 µM
In short: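 Here, cytotoxicity is scored as loss of luminescence. The MLSMR collection was tested on cells seeded in medium containing 10% Nu serum, with a 24 hr compound exposure preceded by 12 hours of culture.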
Potency is the fitted concentration of half-maximal effect.

SMILES	Potency
NC(=S)N/N=C/c1ccc(-c2ccc(SC(F)F)cc2)o1	inconclusive: 2.24 µM [inhibitor, full curve, poor fit]
CCN(CC)CCCNC(=O)c1sc2ncn(CC(=O)Nc3ccc(C)c(Cl)c3)c(=O)c2c1C	inconclusive: 28.2 µM [inhibitor, single point]
CCSC1=C(C#N)C(c2ccccc2C)CC(=O)N1 (stereo not drawn)	inactive
Cc1ccc(S(=O)(=O)C=CS(=O)(=O)c2ccc(C)cc2)cc1	inconclusive: 28.2 µM [inhibitor, single point]
COC(=O)C1=C(C)NC(=S)NC1c1ccc(-c2cc(Cl)ccc2Cl)o1 (stereo not drawn)	inconclusive: 6.31 µM [inhibitor, partial curve, poor fit]
CC1=C(c2ccc(C)c(C)c2)S(=O)(=O)N(Cc2ccc(C(=O)Nc3cc(F)ccc3F)cc2)C1=O	inactive
Cc1ccc([N+](=O)[O-])cc1N(CC(=O)Nc1ccc(S(=O)(=O)Nc2cccc(C(F)(F)F)c2)cc1)S(C)(=O)=O	inconclusive: 28.2 µM [inhibitor, single point]
CN1CCN(Cc2nc3ccccc3c(=O)n2Cc2nc(-c3cccc([N+](=O)[O-])c3)cs2)CC1	inconclusive: 12.6 µM [inhibitor, single point]
COc1ccc(C(=O)CCC(=O)Nc2cccc(Cl)c2)cc1	inconclusive: 1.58 µM [inhibitor, partial curve, poor fit]
O=C(O)CCCCCCCCc1cn(Cc2ccc(C(=O)c3ccccc3)cc2)nn1	inconclusive: 6.31 µM [inhibitor, partial curve, poor fit]
Cc1cc(C)n(-c2nc(NCC3CCCO3)c3c4c(sc3n2)COC(C)(C)C4)n1 (stereo not drawn)	active: 3.16 µM
CC1CC(C)(C)Nc2ccc(N=O)cc21 (stereo not drawn)	inconclusive: 22.4 µM [inhibitor, single point]
CN(Cc1ccc(Cl)s1)C(=O)CCl	inconclusive: 28.2 µM [inhibitor, single point]
COc1cccc(N2C(=O)/C(=C\c3cccs3)NC2=S)c1	inconclusive: 0.631 µM [inhibitor, partial curve, poor fit]
Clc1ccc(CCNC(c2ccc(Cl)cc2)c2nnc(-c3ccccc3)o2)cc1 (stereo not drawn)	inactive
COc1ccc(N2CCN(C(=O)C(C)n3nc(C)c4sc5ccccc5c4c3=O)CC2)cc1 (stereo not drawn)	inactive
CC(/C=C/c1ccccc1)=N\Nc1nc(C)cc(C)n1	inconclusive: 12.6 µM [inhibitor, partial curve, poor fit]
CC1CN(c2ccc([N+](=O)[O-])nc2)CC(C)O1 (stereo not drawn)	inconclusive: 7.94 µM [inhibitor, partial curve]
CCCNS(=O)(=O)c1ccc(N2CCCC2=O)c([N+](=O)[O-])c1	inconclusive: 28.2 µM [inhibitor, single point]
COc1ccc(NC(=O)c2c(Nc3ccccc3)sc(C(=O)c3ccc(F)cc3)c2N)cc1	inconclusive: 4.47 µM [inhibitor, full curve]
N#C/C(=C/c1ccc(N2CCCCCC2)o1)c1cccc(F)c1	inconclusive: 6.31 µM [inhibitor, partial curve, poor fit]

SMILES	Potency
COc1ccc(C[C@H]2CN3C(=NC[C@@H]3Cc3ccccc3)N2CCNC(=O)c2ccc(C)c(Br)c2)cc1	inconclusive: 31.6 µM [inhibitor, partial curve, poor fit]
Cc1cc(-c2ccc(S(=O)(=O)Nc3ccc(Cl)cc3)cc2)on1	inactive
Cc1[nH]c2ccc(-c3nnc(SCC(=O)c4ccccc4F)o3)cc2c1C	inconclusive: 28.2 µM [inhibitor, single point]
CC(C)CCNC(=S)NC1CCCC1	inactive
COc1ccccc1CNC(=O)Cc1c(C)c2cc3c(C)coc3c(C)c2oc1=O	inactive
Cc1cccc(COCC(Cc2ccccc2)N2CCN(C(=O)c3cccc(Cl)c3)CCC2=O)c1 (stereo not drawn)	inconclusive: 0.501 µM [inhibitor, full curve, poor fit]
COC(=O)c1c(NC(=O)c2ccccc2)sc2c1CC(C)(C)NC2(C)C	inconclusive: 14.1 µM [inhibitor, single point]
Cc1[nH]n(-c2ccccc2)c(=S)c1C=NCCCN=Cc1c(C)[nH]n(-c2ccccc2)c1=S	inconclusive: 1 µM [inhibitor, full curve]
CN(C)c1ccc(NC(=O)C2C3C=CC(C3)C2C(=O)O)cc1 (stereo not drawn)	inconclusive: 7.94 µM [inhibitor, partial curve, poor fit]
Cc1ccccc1Oc1nc2c(C)cccn2c(=O)c1/C=C(\C#N)C(=O)Nc1c(C)n(C)n(-c2ccccc2)c1=O	inconclusive: 12.6 µM [inhibitor, single point]
Cc1ccc(NC(=S)NC(NC(=O)N(C)C)C(Cl)(Cl)Cl)cc1 (stereo not drawn)	inconclusive: 28.2 µM [inhibitor, single point]
c1ccc(CN2CCC(Nc3nc(-c4cccs4)nc4ccccc34)CC2)cc1	inconclusive: 12.6 µM [inhibitor, single point]
O=C(NCCCCc1ccccc1)C1CC(c2cccc(F)c2)=NO1 (stereo not drawn)	inactive
CCc1ccc(/C=N/NC(=O)c2cc(C)on2)s1	inconclusive: 28.2 µM [inhibitor, single point]
O=C(CSc1nc(-c2cccs2)cc(C(F)(F)F)n1)Nc1cc(OCC(F)(F)C(F)F)cc([N+](=O)[O-])c1	inconclusive: 10 µM [inhibitor, partial curve, poor fit]
NC(=O)c1c(NC(=O)CCCn2cnc([N+](=O)[O-])n2)sc2c1CCCC2	inconclusive: 0.501 µM [inhibitor, full curve, poor fit]
CS(=O)(=O)Nc1cccc2cccnc12	inconclusive: 28.2 µM [inhibitor, single point]
O=C(N[C@@H](Cc1c[nH]c2ccccc12)C(=O)NC1CC1)c1ccccc1Cl	inconclusive: 28.2 µM [inhibitor, single point]
N#CC(C#N)=NNc1ccc(S(=O)(=O)N2CCCCC2)cc1	inconclusive: 15.8 µM [inhibitor, partial curve, poor fit]
CON/C=N/C(=S)Nc1ncc(C(F)(F)F)cc1Cl	inconclusive: 0.891 µM [inhibitor, full curve]
O=C(N/N=C/c1cc([N+](=O)[O-])ccc1O)c1ccc2c(c1)OCCO2	active: 3.55 µM

SMILES	Potency
COc1ccc(-n2nc3c(=O)[nH][nH]c3cc2=O)cc1	inconclusive: 12.6 µM [inhibitor, partial curve, poor fit]
Cc1ccc2nc(NC(=O)CC3Oc4ccccc4NC3=O)sc2c1 (stereo not drawn)	inconclusive: 2.51 µM [inhibitor, partial curve, poor fit]
Cc1ccc(NC(=O)Cn2c(=O)n(Cc3ccc(F)cc3)c(=O)c3cccnc32)cc1C	inactive
Cc1nnc(SC(=O)N2c3ccccc3Sc3ccccc32)s1	inconclusive: 8.91 µM [inhibitor, partial curve, poor fit]
COc1cccc(CC(O)CC2c3c(cc4c(c3OC)OCO4)CCN2C)c1 (stereo not drawn)	inconclusive: 28.2 µM [inhibitor, single point]
CC(C)(C)OC(=O)N1CCC[C@H]1c1nnc(SCc2ccccc2Cl)o1	inactive
O=C(Nc1ccc(-c2csc(-c3ccccc3)n2)cc1)c1ccccc1Cl	inconclusive: 10 µM [inhibitor, single point]
CNC(=S)Nc1ccc(C23CC4CC(CC(C4)C2)C3)cc1	inconclusive: 3.98 µM [inhibitor, full curve]
CCN(CC)c1ccc(N=Nc2nn(C)c(C)c2[N+](=O)[O-])cc1	active: 4.47 µM
OC(c1cc(-c2ccc(Cl)cc2)nc2ccccc12)C1CCCCN1 (stereo not drawn)	inconclusive: 12.6 µM [inhibitor, single point]
Cc1ccc(C(=O)Nc2ccc(N3CCN(C(=O)c4cccs4)CC3)cc2)c(Cl)c1	inconclusive: 3.16 µM [inhibitor, partial curve, poor fit]
COc1ccc(C(=O)NCc2ncccc2C)cc1OC1CCN(C(C)=O)CC1	inconclusive: 14.1 µM [inhibitor, partial curve, poor fit]
CC1(C(=O)OCC(=O)Nc2nc(-c3ccc(F)c(F)c3)cs2)CC1(Cl)Cl (stereo not drawn)	inconclusive: 11.2 µM [inhibitor, single point]
COc1cc(CNC(=O)c2ccc(NC(=O)N3CCCCc4ccccc43)cc2)cc(OC)c1OC	inactive
Cc1cc(Br)ccc1SCC(=O)OCC(O)=C(C#N)c1nc2ccccc2[nH]1	inconclusive: 8.91 µM [inhibitor, partial curve, poor fit]
COc1ccc(C(=O)c2c3ccc(OC)cc3[n+]([O-])n2Cc2ccc(C(N)=O)cc2)cc1	inconclusive: 7.08 µM [inhibitor, partial curve]
COc1ccc(-n2cccc2/C=C2\C(=N)N3N=C(C(C)C)SC3=NC2=O)cc1	inconclusive: 28.2 µM [inhibitor, single point]
Cc1cc(C(=O)NCCc2ccc(Cl)cc2)c2c(C)nn(-c3ccccc3)c2n1	inactive
CC(C)CCNC(=O)CN(Cc1ccccc1)C(=O)CCC(=O)Nc1nccs1	inactive
CSc1nc(O)c(/C=C2\C=Nc3ccccc32)[nH]1	inconclusive: 15.8 µM [inhibitor, single point]
CCN(CC)c1ccc(C(=O)n2cnc3ccccc32)cc1	inconclusive: 11.2 µM [inhibitor, single point]
